Test results: the supplement of paper PMC7826260
This is one part of the list. Cleavage of a single-stranded DNA pool by Rep nickase domains was read by sequencing for 1 h at 37 °C with 3 µM enzyme; only the middle of the 90-letter strands is printed. Uncut reads are compared with the no-enzyme pool on a log2 scale; strong cutting gives strongly negative numbers. There is no active / inactive call. Shares of all reads are compared; uncut strands gain when others are lost, and binding without cutting may add a little.

What was measured:
Test in all cases: uncleaved DNA left, log2 of reads against the no-enzyme library (log2 ratio); higher = less cleavage (more negative = more Rep cleavage of the k-mer); sequences stand for … in CTCGTCCG…ACCGGAGA
[1] = test system: T1, Rep nickase domain of Muscovy duck circovirus
T1 sequence (residues 1-111, tag not shown): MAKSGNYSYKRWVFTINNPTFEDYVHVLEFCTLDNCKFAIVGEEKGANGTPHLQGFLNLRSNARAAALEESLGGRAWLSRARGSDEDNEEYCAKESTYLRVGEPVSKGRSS
Description: (§1)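 A pool of 90-nt single-stranded DNAs with seven random bases just before the constant AC of the nick site (name = the seven bases) was cut by 3 µM recombinant His6-SUMO-tagged Rep nickase domain (300 nM DNA, 50 mM HEPES pH 8.0, 50 mM NaCl, 1 mM MnCl2, 1 h, 37 °C, three replicates). Uncut DNA was amplified and sequenced.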

[2] = test system: T2, Rep nickase domain of banana bunchy top virus
T2 sequence (residues 1-94, tag not shown): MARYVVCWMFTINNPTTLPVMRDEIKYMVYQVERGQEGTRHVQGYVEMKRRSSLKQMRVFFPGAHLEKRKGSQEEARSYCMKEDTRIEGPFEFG
Description: as §1

[3] = test system: T3, Rep nickase domain of cabbage leaf curl virus
T3 sequence (residues 1-116, tag not shown): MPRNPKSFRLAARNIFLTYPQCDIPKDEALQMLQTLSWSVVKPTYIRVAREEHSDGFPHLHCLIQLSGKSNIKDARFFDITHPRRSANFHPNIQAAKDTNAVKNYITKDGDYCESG
Description: as §1

[4] = test system: T4, Rep nickase domain of chickpea chlorotic dwarf virus
T4 sequence (residues 1-124, tag not shown): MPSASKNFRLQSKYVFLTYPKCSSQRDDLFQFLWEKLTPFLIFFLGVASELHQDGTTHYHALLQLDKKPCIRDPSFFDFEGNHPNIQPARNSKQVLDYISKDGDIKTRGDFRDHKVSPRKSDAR
Description: as §1

[5] = test system: T5, Rep nickase domain of faba bean necrotic yellows virus
T5 sequence (residues 1-98, tag not shown): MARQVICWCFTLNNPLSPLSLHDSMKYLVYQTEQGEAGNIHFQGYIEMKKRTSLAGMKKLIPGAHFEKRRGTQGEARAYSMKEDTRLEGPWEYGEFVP
Description: as §1

[6] = test system: T6, Rep nickase domain of maize striate mosaic virus
T6 sequence (residues 1-117, tag not shown): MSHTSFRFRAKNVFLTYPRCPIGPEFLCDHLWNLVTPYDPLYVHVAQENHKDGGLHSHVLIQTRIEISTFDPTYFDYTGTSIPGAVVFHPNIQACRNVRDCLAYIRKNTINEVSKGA
Description: as §1

[7] = test system: T7, Rep nickase domain of porcine circovirus 2
T7 sequence (residues 2-116, tag not shown): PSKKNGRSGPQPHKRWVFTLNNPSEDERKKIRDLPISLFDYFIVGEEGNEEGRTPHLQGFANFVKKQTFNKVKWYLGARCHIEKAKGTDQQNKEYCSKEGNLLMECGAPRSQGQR
Description: as §1

[8] = test system: T8, Rep nickase domain of tomato golden mosaic virus
T8 sequence (residues 1-124, tag not shown): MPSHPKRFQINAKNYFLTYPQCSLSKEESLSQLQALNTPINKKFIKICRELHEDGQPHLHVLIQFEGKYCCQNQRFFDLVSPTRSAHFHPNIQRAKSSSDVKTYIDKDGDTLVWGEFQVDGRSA
Description: as §1

[9] = test system: T9, Rep nickase domain of tomato yellow leaf curl virus
T9 sequence (residues 1-136, tag not shown): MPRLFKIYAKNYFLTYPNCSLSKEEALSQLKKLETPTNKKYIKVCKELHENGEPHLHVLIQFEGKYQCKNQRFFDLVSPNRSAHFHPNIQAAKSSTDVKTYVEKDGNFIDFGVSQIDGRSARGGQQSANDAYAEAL
Description: as §1

[10] = test system: T10, Rep nickase domain of wheat dwarf virus
T10 sequence (residues 1-137, tag not shown): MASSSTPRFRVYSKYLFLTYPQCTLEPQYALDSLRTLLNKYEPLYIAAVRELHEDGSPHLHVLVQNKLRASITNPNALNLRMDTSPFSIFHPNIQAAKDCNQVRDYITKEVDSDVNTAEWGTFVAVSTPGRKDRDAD
Description: as §1

| Sequence | uncleaved DNA left (log2) [1] | uncleaved DNA left (log2) [2] | uncleaved DNA left (log2) [3] | uncleaved DNA left (log2) [4] | uncleaved DNA left (log2) [5] | uncleaved DNA left (log2) [6] | uncleaved DNA left (log2) [7] | uncleaved DNA left (log2) [8] | uncleaved DNA left (log2) [9] | uncleaved DNA left (log2) [10] |
| --- | --- | --- | --- | --- | --- | --- | --- | --- | --- | --- |
| ACTAACG | -0.00466 | -0.00216 | -0.748 | 0.117 | -0.0363 | -0.779 | 0.147 | -0.0766 | 0.0911 | -0.0764 |
| ACCACCG | -0.0429 | 0.0455 | -0.683 | 0.427 | -0.0911 | -0.301 | 0.0137 | -0.0275 | 0.0331 | -0.113 |
| GACAAAA | -0.0143 | 0.0692 | 0.317 | 0.705 | -0.0316 | 0.435 | 0.105 | 0.0187 | 0.0791 | 0.0995 |
| CGCATAG | 0.105 | 0.0826 | -0.548 | -0.351 | 0.0123 | -0.975 | 0.197 | 0.0997 | 0.194 | 0.0207 |
| AACAATA | -0.017 | 0.0355 | -0.272 | -2.74 | 0.0208 | -0.88 | -0.08 | 0.102 | -0.0265 | 0.0752 |
| TTCCACG | -0.0195 | -0.0508 | -0.688 | -0.768 | 0.0555 | -1.08 | 0.0779 | -0.148 | -0.0623 | -0.0388 |
| CGTACGA | 0.0555 | -0.116 | -0.113 | -0.121 | 0.0299 | -0.58 | 0.0507 | -0.112 | -0.0843 | -0.0273 |
| GGTAGCG | 0.0766 | 0.0546 | -0.581 | 0.557 | 0.0331 | -0.518 | 0.181 | 0.0852 | 0.0879 | 0.0219 |
| ATGCCAT | -0.0637 | -0.0639 | -0.0557 | -0.197 | -0.018 | -0.266 | -0.0669 | -0.0823 | 0.0255 | -0.0695 |
| AATTCAT | -3.33 | -1.93 | -0.00221 | -1.4 | 0.0808 | -0.422 | -3.62 | 0.0143 | 0.175 | 0.165 |
| TATGAGA | -0.0103 | -0.0642 | -0.315 | -0.848 | 0.0464 | -1.3 | 0.0238 | -0.136 | -0.112 | -0.0319 |
| TGAGGGT | -0.0297 | 0.0959 | 0.233 | 1.55 | -0.0288 | 1.84 | 0.263 | 0.0576 | -0.115 | -0.0211 |
| CATGAGG | 0.2 | -0.0315 | 0.114 | 0.699 | 0.0814 | -0.13 | 0.22 | 0.13 | 0.0262 | 0.104 |
| CCACTAA | 0.146 | 0.0451 | -0.25 | -0.783 | -0.0262 | -0.659 | -0.0809 | -0.113 | -0.234 | -0.0109 |
| TAGTTTC | -0.341 | -0.0121 | -0.0111 | -0.62 | -0.321 | -0.273 | -3.33 | 0.0217 | 0.0704 | -0.0244 |
| ACCCATT | -0.0553 | 0.0516 | -0.249 | -1.76 | -0.128 | -0.888 | -0.875 | -0.163 | -0.121 | -0.0411 |
| CTCATAA | 0.118 | 0.0847 | -0.0626 | -0.344 | -0.0409 | -0.719 | 0.0235 | 0.106 | -0.00345 | 0.0484 |
| TGTTTTA | 0.138 | -0.0163 | 0.438 | 0.365 | 0.0111 | 1.51 | 0.0534 | 0.117 | 0.148 | 0.0568 |
| TCCTGAA | -0.0425 | 0.0735 | 0.13 | -0.156 | -0.161 | -0.247 | -0.0921 | -0.00443 | -0.0185 | 0.0142 |
| CCCCTAT | 0.0336 | -0.00293 | 0.0807 | -0.871 | 0.0425 | -0.288 | -0.0976 | 0.0724 | -0.127 | -0.0975 |
| GCCGTGG | 0.239 | 0.0852 | 0.259 | 0.845 | 0.0466 | 0.405 | 0.339 | 0.258 | 0.127 | 0.101 |
| TCTCGGG | -0.0522 | -0.123 | 0.0264 | 0.185 | -0.167 | -0.145 | -0.0761 | -0.0616 | -0.195 | -0.164 |
| GGGCTTT | 0.114 | 0.0633 | 0.878 | 1.89 | 0.0694 | 2.28 | 0.148 | -0.0541 | 0.0986 | 0.298 |
| TTTGAGT | 0.0376 | -0.185 | -0.522 | -0.907 | 0.0327 | -1.02 | -0.0425 | -0.0162 | -0.0471 | -0.161 |
| TGCATTC | 0.0325 | 0.0324 | 0.0903 | 0.219 | -0.0169 | -0.457 | 0.146 | -0.133 | 0.152 | 0.11 |
| GACGTTT | 0.00438 | -0.0265 | 0.227 | -0.899 | 0.0612 | 1.24 | -0.292 | 0.0104 | -0.088 | -0.0487 |
| CAACGCT | 0.0532 | 0.00442 | -0.81 | -2.34 | 0.0881 | -0.728 | -0.01 | -0.0375 | -0.0223 | -0.283 |
| CCCCCCT | -0.26 | -0.283 | -0.314 | -1.71 | -0.241 | -0.717 | -0.518 | -0.168 | -0.189 | -0.298 |
| GCTGAAA | 0.0611 | 0.0824 | 0.128 | 0.6 | 0.0627 | 0.782 | 0.0685 | 0.0804 | 0.0967 | 0.0616 |
| CCCTCGG | 0.0701 | -0.0119 | 0.559 | 1.42 | 0.142 | 1.67 | 0.113 | 0.135 | -0.145 | -0.019 |
